Experimental data: PubChem BioAssay AID463173 (ICCB-Longwood Screening Facility, Harvard Medical School, 2010)
About 4,300 (8.3%) of roughly 52,000 compounds were called active. Rule as the data show it: active = survival mostly below about 52% (no sharp cut-off); inactive = mostly above about 56%. Some of the results follow.

The compounds below were run on DeltatarO mutant (assay: growth inhibition of S. aureus wild type versus tarO mutant, primary screen, teichoic acid synthesis inhibitors, RN4220, OD600 (AID 463173)). Settings: OD600, 18 h, hits give low values, screened at 18.75 µg/mL (by protocol).

SMILES	survival
CCOC(=O)c1cnc2ccc(OC(F)(F)F)cc2c1Nc1ccccc1C(=O)O	active: 37%
NCCCc1nc2ccccc2[nH]1	inactive: 95%
Cc1ccc(NC(=O)CCCN2C(=O)COc3ccc(C)cc32)c(Cl)c1	inactive: 121%
COc1cccc(/C=C/c2nc(C#N)c(N3CCCCCC3)o2)c1	inactive: 61%
Cc1cccc(CNC(=O)CCCN2C(=O)c3cccnc3Oc3ccccc32)c1	inactive: 94%
COc1ccc(-c2noc(-c3ccc(NCc4ccco4)c([N+](=O)[O-])c3)n2)cc1OC	active: 43%
CCc1ccc(N2CC(c3nc4ccccc4n3Cc3ccccc3C)CC2=O)cc1 (stereo not given)	active: 52%
CCOc1ccc(C(=O)NCCc2sc(-c3cccc(F)c3)nc2C)cc1OCC	inactive: 72%
O=C(Nc1ccc(OCc2cc(=O)n3c4c(sc3n2)CCCC4)cc1)c1ccc(F)cc1	inactive: 76%
Cc1sc2ncn3ncnc3c2c1C	inactive: 89%
Cc1ccccc1-c1noc(CSc2nc(-c3ccc(F)cc3)cc(=O)[nH]2)n1	active: 37%
COc1ccc(-n2nnnc2SCC(=O)NCCc2ccccc2)cc1	inactive: 53%
COC(=O)Cc1c(C)c2ccc3c(c2oc1=O)CN(Cc1ccc(C)cc1)CO3	inactive: 110%
NC(=O)C1CCN(c2ncnc3c2cnn3-c2cccc(Cl)c2)CC1	inactive: 105%
CCc1ccccc1NS(=O)(=O)c1ccc2[nH]cc(C(=O)NC3CCCC3)c(=O)c2c1	active: 33%
O=C(O)CC1=C(c2ccc(F)cc2)CCC1=O	inactive: 114%
Cc1ccc(NC(=O)Cn2nc(C(F)(F)F)c3c2CCC3)cc1C	inactive: 83%
CC(C)COc1ccc(C(=O)Nc2onc3c2CCCC3)cc1	inactive: 103%
CCOc1ccc(CCNC(=O)CCn2c(=O)c3cccn3c3ccc(F)cc32)cc1	inactive: 50%
CC(=O)Nc1cccc(-c2nnc(SCC(=O)c3ccc([N+](=O)[O-])cc3)o2)c1	inactive: 130%
CCC1CCCCN1C(=O)COc1ccc(F)cc1 (stereo not given)	inactive: 76%
COc1ccc(OC)c(CNC(=O)c2cnc(N(C)C)nc2)c1	inactive: 71%
CCOC(=O)CSc1nc(-c2ccc(OC)cc2)cc(C(F)(F)F)c1C#N	inactive: 76%

SMILES	survival
O=C(CSc1oc(-c2cccs2)nc1S(=O)(=O)c1ccccc1)Nc1ccc(F)cc1	inactive: 55%
CN(C(=O)CSc1nc2ccc(NC(=O)c3ccccc3)cc2s1)c1ccccc1	inactive: 64%
Cc1ccc(C2=NN(CCC(=O)NCCc3cccc(C)c3)C(=O)CC2)cc1	inactive: 98%
COc1ccc(Cn2c(NCC(C)C)nc3c2c(=O)n(C)c(=O)n3C)cc1	inactive: 49%
O=C(Cn1nc2c(cc1=O)CCCC2)NCc1ccccc1	inactive: 105%
COc1ccc(-n2nc(C(=O)N3CCN(c4cccc(C)c4)C(C)C3)c3c4ccccc4n(C)c3c2=O)cc1Cl (stereo not given)	inactive: 90%
COc1cccc(-n2c(=O)c3c4c(sc3n(Cc3ccccc3C#N)c2=O)CCCC4)c1	inactive: 75%
Cc1ccccc1-c1noc(-c2ccc(NC3CCCC3)c([N+](=O)[O-])c2)n1	inactive: 66%
O=S(=O)(c1ccc2nc(Nc3ccc(Br)cc3F)ccc2c1)N1CCCC1	inactive: 117%
CCOC(=O)c1ccc2c(c1)C(=O)N(c1ccccc1OC)C2=O	inactive: 80%
Cc1ccc2oc(C(=O)N(Cc3ccc(N(C)C)cc3)CC3CCCO3)c(C)c2c1 (stereo not given)	inactive: 93%
CCOC(=O)c1c(NC(=O)CSc2cn(CCNC(=O)c3cccc(C(F)(F)F)c3)c3ccccc23)sc2c1CCC2	inactive: 75%
COC(=O)Cn1cc(C2C(C#N)=C(N)OC3=C2C(=O)CC(C)(C)C3)c2ccccc21 (stereo not given)	inactive: 98%
O=C(NCCc1ccccc1)c1ccc2nc(N3CCCCC3)sc2c1	inactive: 88%
CCOc1ccc(NC(=O)c2sc3nc4c(c(-c5ccccc5)c3c2N)C(=O)CC(C)(C)C4)cc1	inactive: 49%
Cc1ccc(S(=O)(=O)c2cnc(SCC(=O)Nc3ccc4c(c3)OCCO4)[nH]c2=O)cc1Cl	inactive: 75%
Cc1ccccc1-c1ccnc2[nH]n(-c3ccccc3)c(=O)c12	active: 47%
O=S(=O)(NCC(c1ccco1)N1CCOCC1)c1ccc(Br)cc1 (stereo not given)	inactive: 91%
Cc1ccccc1NC(=O)c1cn(-c2ccccc2)nc1-c1ccccc1	inactive: 81%
Nc1nonc1-n1nnc(C(=O)N=Nc2c(O)[nH]c3ccc(Br)cc23)c1-c1ccccc1	inactive: 49%
COc1ccc(-c2cc(C(=O)Oc3ccc(C)cc3)c3ccccc3n2)cc1	active: 11%
CC(C)Oc1ccc(C(=O)N2CCC(c3nc4ccccc4o3)CC2)cc1	inactive: 105%
Cc1ccc(NS(=O)(=O)c2ccc(-c3cnc(C4CC4)o3)cc2)cc1N(C)C	inactive: 79%

SMILES	survival
CC(=O)Nc1ccc(NC(=O)CSc2nccn2Cc2ccc3c(c2)OCO3)cc1	inactive: 84%
COc1cc(NC(=O)CSc2ncc3c(n2)-c2ccc(Cl)cc2N(Cc2ccccc2)S3(=O)=O)cc(OC)c1	inactive: 55%
CC(C)c1ccc(NC(=O)CSC2=Nc3ccccc3C3=NC(CC(=O)NCc4cccs4)C(=O)N23)cc1 (stereo not given)	inactive: 82%
CN(C)CCNC(=O)C1CCN(c2ncnc3c2nc2n3CCCCC2)CC1	inactive: 102%
O=C1CSC2(C(=O)N(Cc3ccccc3F)c3ccccc32)N1c1cccc(C(F)(F)F)c1 (stereo not given)	inactive: 87%
O=C(Cn1ncc2c3ccccc3n(Cc3ccc(Cl)cc3)c2c1=O)NCCC1=CCCCC1	inactive: 89%
C=CCn1c(=O)[nH]c(=O)n(CC=C)c1=O	inactive: 77%
CCOc1ccccc1CNC(=O)CCc1c(C)nn(-c2ccc(N3CCCCC3)nn2)c1C	inactive: 71%
CC(NC(=O)C1CCN(S(=O)(=O)c2ccc(F)cc2)CC1)c1ccccc1 (stereo not given)	inactive: 130%
COc1cccc(C(=O)Nc2nc3ccc(S(=O)(=O)N4CCCC4)cc3s2)c1	inactive: 79%
CC1CCC(N2CC(=O)N(C3CCCCC3)C(c3ccc(Cl)cc3)C2=O)CC1 (stereo not given)	inactive: 84%
O=C(Nc1ccc(Br)cc1)c1cc(-c2cccs2)nc2ccccc12	inactive: 83%
COc1cccc(N2CCN(C(=O)c3cc4c(s3)-c3c(C)cccc3OC4)CC2)c1	inactive: 73%
CCCCn1c(=NC(=O)C(C)(C)Oc2ccc(Cl)cc2)c(C(=O)OCC)cc2c(=O)n3ccccc3nc21	inactive: 60%
O=C(/C=C/c1ccccc1)C1=C(O)C(=O)N(CCO)C1c1ccc(F)cc1 (stereo not given)	inactive: 84%
Cc1ccc(OCC(=O)Nc2nonc2-c2ccc(C)c(C)c2)cc1C	inactive: 59%
Cc1ccc(NC(=O)CN2C(=O)COc3ccc(S(=O)(=O)N4CCCCCC4)cc32)cc1Cl	inactive: 67%
COc1ccc(CNC(=O)c2cc3cc4ccc(C)cc4nc3o2)cc1	inactive: 74%
O=C(Cc1ccccc1)Nc1c(C(=O)c2ccccc2)oc2ccccc12	active: 3%
Cc1ccc(NC(=O)CSc2nnc(-c3nnn(-c4ccc(F)cc4)c3C)o2)cc1Br	inactive: 47%
Cc1nc(-c2cccc(F)c2)sc1CCNC(=O)c1c(F)cccc1Cl	inactive: 85%
COC(=O)c1ccc(C2c3c(oc4ccc(C)cc4c3=O)C(=O)N2Cc2ccc3c(c2)OCO3)cc1 (stereo not given)	inactive: 94%
O=C(O)C1CC2C=CC1O2 (stereo not given)	inactive: 99%

SMILES	survival
O=C(O)c1ccccc1C(=O)N1CCC(C(=O)c2ccccc2)CC1	inactive: 104%
O=C(c1ccccc1)N1CCc2ccccc21	inactive: 81%
CCOC(=O)c1c(Nc2ccc(O)cc2)nnc(-c2ccccc2)c1-c1ccccc1	inactive: 95%
Cc1ccc(S(=O)(=O)c2nnn3c2nc(NCc2ccc4c(c2)OCO4)c2sccc23)cc1	inactive: 113%
COc1cccc(CNC(=O)Cn2ccc3cc(S(=O)(=O)N4CCCC4)ccc32)c1OC	inactive: 95%
O=C(Nc1ccc(OC(F)(F)F)cc1)C(Cc1ccccc1)NS(=O)(=O)c1cccc2nsnc12 (stereo not given)	active: 49%
COc1ccccc1C(=O)Nc1cccc(C(=O)OCc2cc(=O)n3nc(C4CC4)sc3n2)c1	inactive: 74%
CC(C)Cc1nn2c(=O)cc(COC(=O)CNC(=O)c3ccc(C(C)(C)C)cc3)nc2s1	inactive: 107%
Cc1ccc(C)c(CNC(=O)c2ccc3c(c2)nc2n3CCOC2)c1	inactive: 67%
CC1CCCN(CCCNC(=O)c2ccc3c(c2)N(Cc2cccc(Cl)c2)C(=O)c2ccccc2S3(=O)=O)C1 (stereo not given)	inactive: 102%
Cc1ccc2c(NC(=O)C3CC3)cccc2n1	inactive: 105%
O=C(Nc1ccc(C(=O)N2CCCCC2)cc1)c1nsc2ccccc12	inactive: 83%
CS(=O)(=O)c1ccccc1-c1nnc(NC(=O)c2ccc3c(c2)OCCO3)o1	active: -4%
Cc1ccc(C)c(CN2C(=O)c3ccccc3S(=O)(=O)c3ccc(C(=O)Nc4cc(F)ccc4F)cc32)c1	inactive: 80%
COc1ccc(NC(=O)c2nnn(CC(=O)Nc3c(C)cc(C)cc3C)c2N)cc1OC	inactive: 91%
Fc1ccc(Nc2nc(SCc3cccc(Cl)c3)nc3ccccc23)cc1	inactive: 70%
COc1ccc(CNC(=O)CN(c2ccc(C)cc2)S(=O)(=O)c2c(C)noc2C)cc1	inactive: 74%
Cc1ccc(OCCCCn2cnc3ccccc32)cc1	active: 11%
CCN(CC)S(=O)(=O)c1ccc2c(c1)nc(CN(C)C(=O)Nc1ccc(F)cc1)n2C	inactive: 97%
CC(=O)N(Cc1cccnc1)Cc1cc2cc3c(cc2n2nnnc12)OCO3	inactive: 103%
CC1=C(C(=O)Nc2ccccc2)C(c2ccc(C)cc2)n2nc(SCc3ccccc3C)nc2N1 (stereo not given)	inactive: 94%
